Source: paper PMC9572397, “Garcinia cambogia Phenolics as Potent Anti-COVID-19 Agents: Phytochemical Profiling, Biological Activities, and Molecular Docking” (Plants, 2022)

Legend:
[1] = test system: Human Coronavirus (COVID-19); test: microbe, parasite or virus in culture; details: unidentified human coronavirus; for log reduction at 1 µM / log reduction at 10 µM: read-out: Log Difference
[2] = test system: Human Coronavirus (COVID-19); details: Table S4

SMILES	inhibition at 1 µM ([1]; Table S3) [%]	inhibition at 10 µM ([1]; Table S3) [%]	inhibition at 0.001 µM ([1]; Table S4, 0.001 µM) [%]	inhibition at 0.01 µM ([1]; Table S4, 0.01 µM) [%]	inhibition at 0.1 µM ([1]; Table S4, 0.1 µM) [%]	inhibition at 1 µM ([1]; Table S4) [%]	inhibition at 10 µM ([1]; Table S4) [%]	EC50 ([1]; Table S4, Conc. column in µM) [µM]	log reduction at 1 µM [1]	log reduction at 10 µM [1]	EC50 ([1]; serial concentration 10, 1, 0.1, 0.01, 0.001 μM) [µM]	Log diff ([2]; 0.001 µM)	Log diff ([2]; 0.01 µM)	Log diff ([2]; 0.1 µM)	Log diff ([2]; 1 µM)	Log diff ([2]; 10 µM)
CCC(CC)COC(=O)[C@H](C)N[P@](=O)(OC[C@H]1O[C@@](C#N)(c2ccc3c(N)ncnn23)[C@H](O)[C@@H]1O)Oc1ccccc1 [Remdesivir, reference compound]	95.4	98.7	17.7	55.3	92.7	95.4	98.1	0.00818	1.34	1.88	0.0081	-0.08451	-0.3501	-1.135	-1.337	-1.714
C[C@@H]1O[C@@H](OC[C@H]2O[C@@H](Oc3c(-c4ccc(O)c(O)c4)oc4cc(O)cc(O)c4c3=O)[C@H](O)[C@@H](O)[C@@H]2O)[C@H](O)[C@H](O)[C@H]1O [Compound 4, rutin]	23.7	65.5	–	–	–	–	–	–	0.118	0.462	–	–	–	–	–	–
O=c1c(O)c(-c2ccc(O)c(O)c2)oc2cc(O)cc(O)c12 [Compound 1, quercetin]	63.7	87.9	–	–	–	–	–	–	0.441	0.918	–	–	–	–	–	–
O=c1cc(-c2ccc(O)c(-c3c(O)cc(O)c4c(=O)cc(-c5ccc(O)cc5)oc34)c2)oc2cc(O)cc(O)c12 [Compound 2, amentoflavone]	50.4	85.1	–	–	–	–	–	–	0.305	0.827	–	–	–	–	–	–
O=C(O)c1cc(O)c(O)c(O)c1 [Compound 8, gallic acid]	61.1	92	–	–	–	–	–	–	0.411	1.1	–	–	–	–	–	–

Where two headings read alike, the source gives them in different places.
